The supplement of paper PMC11417369
Some of the results follow.

These sequences were tested on PfAP2-HC AP2 domain (GST-tagged) (assay: gcPBM binding intensity (ln(normalized median fluorescence intensity)); higher = stronger DNA binding).
Outline: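 Probes on an Agilent 4 × 180k array were primer-extended, double-stranded and 36 bp long, taken from intergenic genomic regions, with negative controls added. GST-tagged P. falciparum DNA-binding domains from E. coli, about 25 μg on average, were applied to the array for 1 h in 1× PBS containing 1% milk, 0.2 mg/ml BSA, 0.5% salmon testes DNA and 0.03% Triton X-100. Binding intensity, obtained after Alexa488 anti-GST antibody detection and a 488 nm scan, is the highest Masliner-normalised natural-log median intensity across replicate spots of either probe orientation.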

Sequence	gcPBM binding intensity (ln)
TTGTGTTAACTACCATGTACTTATACATCATAGGAA [XGTACX_site6627]	9.43
TATTGCCCTGGACACACACACATATATATATATATA [CACACA_site5389]	10.2
ATAATATAAACATACACACACACATCTATATTTATA [CACACA_site7381]	10.6
TTATGTTATATAAAAAGTACAAATTTTTTTTAATTA [XGTACX_site3435]	9.42
ATTATTATTATATATGCATGTAAAATATTAAAGTAC [TGCATGCA_site914]	9.58
ATACATATAAAAAAGTGTACATATTAAAATAAGTAT [XGTACX_site1310]	9.85
TTTTTTATAAATCAAATGAAAAATAAACTATTCAGA [CACACA_negctrl_site1568]	9.32
ATATCCGTTCAAAGATGTACATATATATTCTATAGA [XGTACX_site5354]	9.7
AATGCAAATAATAAAACACACAAAAAAAAGAAAAAA [CACACA_site1184]	9.9
TCATACAAACCTATTTGTACATAAGTATAATATATA [XGTACX_site4284]	9.54
AAGTATTACAACCACACACACACCTATATATCATAG [CACACA_site7878]	11
ATCTTTTACGAATACACACACATAAAGAAAAAAAAA [CACACA_site1331]	9.98
AAGGATATGAAAAGTAGTACAAAATTTAGAACACCC [XGTACX_site4758]	9.94
TTACGATTAAATATAACACACAACATATTTTTAATA [CACACA_site2967]	9.76
ATTATATTCTCCTTCACACACAAAAATATTTCATCA [CACACA_site5326]	9.93
CACAAAAATTTATACACACACATATATAATATATAT [CACACA_site152]	10.5
ATTTCAAATTAATTTACACACTTCATACTAAAAGAC [CACACA_site3176]	9.66
TTGATATATAATAATACACACTTACATAATTAATTA [CACACA_site4320]	9.63
ATGTATATGTTTTGTTGTACAAGTATTTTATATCTT [XGTACX_site3588]	9.82
TTTCAATTTATCAGTGTGCACAAAAATAAAATAAAA	9.88
TAAATACAGACATATACACACATATATATATATATA [CACACA_site4382]	9.75
TTTAAATATATTCAATCACACACATTCGTTTTTTTT [CACACA_site7962]	9.88
AATATATACATACATACATGCATACATATATATAAC [TGCATGCA_site371]	9.77

Sequence	gcPBM binding intensity (ln)
AGTAGTCTGGAGAAAAGTACACAGTATCTGGTAACC [XGTACX_site2035]	9.69
GAATATTAAACAAACACACACACATATATATATATA [CACACA_site3382]	10.7
GTTTATTGATTTATTTGTACTTATATATATATTTCA [XGTACX_site5098]	9.96
GTATAAAAATTATATACACACAACAGAATTACATAT [CACACA_site133]	10.1
TAAAGATGTATTTATTCACACATCTCATATAATGAA [CACACA_site5229]	9.46
TTATGTATCCTTATAAGAAAAAAAAAAAAATTCTCT [CACACA_negctrl_site1183]	9.26
AATAAAAATATAGGCACACATATTAAAATGAACTTA [CACACA_site830]	9.93
TGAATTTAGATATATACACACAAAAGTAAATACAAT [CACACA_site5548]	10.1
TATAAATAGATATATACACACATTTTTAATGATAAA [CACACA_site7299]	9.77
TTTTTATTTTTTCAAGTGCATATTTTTGGCTTCTTA	9.53
TATATATATATATTACGTTTTAAATATACTAATCTT [CACACA_negctrl_site32]	9.62
CTTTTTCCTTTATATTGTACATAATTAAAGATAATA [XGTACX_site7014]	9.16
AAAAAAAAAAAAAATACACACATATATATATATATA [CACACA_site85]	10.1
TAAATTTATATATAGGTGCGCAATTTGATAATAGTT [GTGCAC_site9783]	9.96
AAAAAAAAAAGACACACACACAATAGTATATAAATC [CACACA_site6579]	10.5
ATATAATCCTTTCAAACACACAAAATATAATTAATA [CACACA_site1829]	9.76
ATGATGGAATATTCTACACACAATTAATAAACAAAC [CACACA_site1045]	9.94
TTTTTTTATAAATTCACACAAAATATAATATTAAAA [CACACA_site4766]	9.23
CTATATATTTTTCATTGTACACAAATTAAAGAAAAA [XGTACX_site8385]	9.3
AATGTCATCATATTCATATATATTTATTTCTTTTTG [GTGCAC_negctrl_site500]	9.69
GGTTATAACCCACATGCACACGTAAATAAATATTAT [CACACA_site5992]	9.76
ATAAATAATAAGGTTACAACAAACACACAAAGGAAT [XGTACX_negctrl_site611]	10.2
TAAAAAAAAAAGTATACACACTTCTTAATGTCAACA [CACACA_site4818]	9.6

Sequence	gcPBM binding intensity (ln)
TGTCCAATTTATTGTGCACACCTCAAAAGTGGGTAA [CACACA_site3826]	9.69
GATATATAGGTATTTACACACAATGTGAGATCTATA [CACACA_site7575]	9.95
AAAGACTTTTTATGAGCACACACATATATTATGGAG [CACACA_site8254]	9.83
TTTCTATAATATATATGTACATATATAATATGTCGT [XGTACX_site3676]	9.7
AGATAAAATAAATACACACACATAAATACGTACAAA [CACACA_site4739]	10.4
TGATAATAAGCATACACACACACACTAAAAAAAAAA [CACACA_site6478]	10.9
ATGATTATACAAAATATACACACGTGGACACAAATA [CACACA_site8304]	10.3
AGAAGATTAAAAATTGCACACAAAAATATATTTTCT [CACACA_site8359]	9.8
TACCTATATACATACACACACATATAACCAATGTAG [CACACA_site7096]	10.4
TAATAAATAAAAACATGTACATATATACATATATGT [XGTACX_site485]	9.69
TTGATATACTATGACACATGCAAATAAAACATTATA [TGCATGCA_site535]	9.58
TAATCATTTTTAAATTGTACAATTTATATAATAAGT [XGTACX_site6081]	9.49
TAAATTTTGTTTAGCACACACACATACATACATACA [CACACA_site3155]	10.8
TTGTATTGTATATGCACACATAGAACACTTTTTTTT [CACACA_site4133]	9.88
TATTTTTTAAGTGAACATTTGTTATTATATTCTTAT [GTGCAC_negctrl_site172]	9.56
TATATCTGTATCATTACACACATGTATACTTATTTG [CACACA_site6134]	10.1
ATTAAAATAGAAAAAAAAAAAAAAAAAAAAAAAAAA [CACACA_negctrl_site1117]	8.88
GATGATACACAGGTGTTGCACTTAAATGCAGTTCTT [GTGCAC_site9627]	9.71
TATGGGGAACTATAATGTACGTATTCCTCATATATA [XGTACX_site338]	9.7
TTTTCAAAATGTTGTACACACAAAAAAAAAAAAAAA [CACACA_site1550]	9.58
AATTATTCTATATATTGTACATGTTTGTTTTTTTTT [XGTACX_site3130]	10.1
ATATATAAATATATATGTACACACATATACATGTTG [XGTACX_site6653]	10.1
TGTTTAATCACATGTTTGCACTTTCCTTTTGTAAAT [GTGCAC_site9893]	9.88

Sequence	gcPBM binding intensity (ln)
TCTTAAAATCGGAAATGAAATAAAGTTTACAATATG [TGCATGCA_negctrl_site553]	9.49
TGATTCTGTCATGGTGCACACCAGAACCATTATAAA [CACACA_site1965]	9.52
ATGTTTAATTTTTTTTTGTCCCTATAGAAGTGTCAA [CACACA_negctrl_site1103]	9.54
AATGAATAAATAAACACACACACATATATAAATATG [CACACA_site6160]	10.5
AAAACAAACAGACACACACACATATATATATATATA [CACACA_site3655]	10.8
TTTGAGTGCACATACACACAGACATACATTTAAATA [CACACA_site3403]	10
ATAACCTAATAATACACACACATGAATATATAGAAT [CACACA_site963]	10.2
TTTAAAATTTTTTTTTTTTTTTTTTTTTTTTTTTAT [TGCATGCA_negctrl_site213]	9.22
ATATAAATATGTTCTGCACACAAATAAGTGTTTGAA [CACACA_site9291]	9.79
CATATATATATATGTACACACATTAATAAAAAAAAA [CACACA_site3230]	9.83
GTTTAACTGTTTTATACACACAATGTATACAATAAA [CACACA_site2959]	9.73
AAAAAAAAAAAAAAAAGTACGTATCAAAGCATCAAA [XGTACX_site880]	9.64
AATCTGATCTTTTAAAGTACACAAAAAAAAAAAAAA [XGTACX_site115]	9.19
AGGTTATAAATAAATACACACATACAAAAATATGAC [CACACA_site4773]	10
AATGAACACCTAAAATGTACGTACAAATATATTTTA [XGTACX_site7067]	9.76
CCAAAATACATTAAACGTACATGTCCTAATAAGATA [XGTACX_site21]	9.6
TTCTTATATATATACACACACAAAATATCTACAATG [CACACA_site736]	10.1
TTGTTTTTATAAATATTATTACAATGAAAAAAAAAA [TGCATGCA_negctrl_site185]	9.32
TAATATATATTATTATGTACATATATTGATTCCTTG [XGTACX_site6830]	9.68
TATTTATTAATATGTACACACATCAACCATATTAAC [CACACA_site7001]	9.9
